Measured values published in article PMC6238599.
Results are given in words; binding and its absence hold for the method and conditions named. Binding seen in cells or lysates may run through a third protein. Some binding calls cover weakened binding; strength is not graded here.

Chains of the proteins cited; added tags and fusions are not shown.
UniProt A2AGH6: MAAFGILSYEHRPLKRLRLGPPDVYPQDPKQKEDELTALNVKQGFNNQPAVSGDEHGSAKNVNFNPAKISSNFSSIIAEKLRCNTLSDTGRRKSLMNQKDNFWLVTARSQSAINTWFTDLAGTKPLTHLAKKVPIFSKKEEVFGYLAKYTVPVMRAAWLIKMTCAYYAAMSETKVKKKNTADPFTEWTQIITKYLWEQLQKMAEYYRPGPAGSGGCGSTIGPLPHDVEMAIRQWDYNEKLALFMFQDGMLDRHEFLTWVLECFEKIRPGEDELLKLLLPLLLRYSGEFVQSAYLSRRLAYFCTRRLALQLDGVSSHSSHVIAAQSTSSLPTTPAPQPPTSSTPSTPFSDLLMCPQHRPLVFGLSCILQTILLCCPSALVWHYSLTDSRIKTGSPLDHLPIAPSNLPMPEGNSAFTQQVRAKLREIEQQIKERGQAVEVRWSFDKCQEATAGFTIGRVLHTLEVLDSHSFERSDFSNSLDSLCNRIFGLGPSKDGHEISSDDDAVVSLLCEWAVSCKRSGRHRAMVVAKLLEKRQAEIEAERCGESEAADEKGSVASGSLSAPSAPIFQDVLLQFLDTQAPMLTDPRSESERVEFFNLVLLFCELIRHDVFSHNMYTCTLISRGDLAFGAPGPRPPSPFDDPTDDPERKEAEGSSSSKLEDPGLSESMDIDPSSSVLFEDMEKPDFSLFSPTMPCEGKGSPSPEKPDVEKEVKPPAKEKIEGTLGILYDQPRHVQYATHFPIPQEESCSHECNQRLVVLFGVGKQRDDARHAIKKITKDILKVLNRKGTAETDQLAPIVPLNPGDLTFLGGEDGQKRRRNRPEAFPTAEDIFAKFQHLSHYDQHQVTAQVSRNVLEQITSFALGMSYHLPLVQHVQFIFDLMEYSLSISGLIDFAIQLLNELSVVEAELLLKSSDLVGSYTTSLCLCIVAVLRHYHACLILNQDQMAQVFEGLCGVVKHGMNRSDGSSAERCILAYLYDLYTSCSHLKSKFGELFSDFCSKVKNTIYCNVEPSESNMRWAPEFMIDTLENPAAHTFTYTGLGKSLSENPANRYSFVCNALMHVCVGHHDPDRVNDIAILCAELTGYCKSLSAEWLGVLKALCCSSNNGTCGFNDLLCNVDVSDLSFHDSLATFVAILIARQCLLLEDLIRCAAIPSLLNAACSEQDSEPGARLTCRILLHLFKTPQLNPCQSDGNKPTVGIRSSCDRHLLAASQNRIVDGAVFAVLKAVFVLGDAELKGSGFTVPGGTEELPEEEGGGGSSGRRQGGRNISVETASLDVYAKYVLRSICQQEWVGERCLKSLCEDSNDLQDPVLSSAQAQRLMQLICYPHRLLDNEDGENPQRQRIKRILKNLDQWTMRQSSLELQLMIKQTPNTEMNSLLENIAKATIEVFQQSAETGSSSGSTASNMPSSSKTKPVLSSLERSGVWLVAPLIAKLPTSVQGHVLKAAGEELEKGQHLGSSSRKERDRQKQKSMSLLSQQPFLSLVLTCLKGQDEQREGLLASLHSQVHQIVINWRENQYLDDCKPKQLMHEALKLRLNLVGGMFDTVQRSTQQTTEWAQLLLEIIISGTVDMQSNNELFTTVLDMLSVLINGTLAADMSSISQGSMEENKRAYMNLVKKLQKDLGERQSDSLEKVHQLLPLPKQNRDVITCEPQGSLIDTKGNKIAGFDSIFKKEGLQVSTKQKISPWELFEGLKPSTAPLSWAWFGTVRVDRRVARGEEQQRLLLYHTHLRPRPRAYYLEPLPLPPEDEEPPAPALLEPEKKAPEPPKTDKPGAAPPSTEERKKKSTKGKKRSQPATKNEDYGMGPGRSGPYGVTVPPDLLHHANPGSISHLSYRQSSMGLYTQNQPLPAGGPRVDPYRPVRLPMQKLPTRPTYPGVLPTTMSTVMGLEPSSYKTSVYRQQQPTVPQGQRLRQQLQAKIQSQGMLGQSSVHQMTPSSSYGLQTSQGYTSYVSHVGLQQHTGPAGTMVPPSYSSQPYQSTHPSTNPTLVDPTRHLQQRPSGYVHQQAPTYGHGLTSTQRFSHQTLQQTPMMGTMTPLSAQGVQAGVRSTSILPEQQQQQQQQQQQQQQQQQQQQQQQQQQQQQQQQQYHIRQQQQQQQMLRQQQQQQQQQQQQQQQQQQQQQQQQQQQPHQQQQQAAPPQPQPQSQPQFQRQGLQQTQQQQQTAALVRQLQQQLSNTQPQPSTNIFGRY

Assays:
[1] = target: MED12 (endogenous, MEFs) (mouse (endogenous in MEFs)) (UniProt A2AGH6); assay: co-IP; whole cell extracts of CARM1 WT (+/+) and KO (-/-) MEFs; IP with anti-MED12, Western blot for mediator subunits
[2] = target: MED12 (endogenous, human cells) (human (endogenous in MCF-7 and HeLa)), Q93074; assay: co-IP; HeLa whole cell lysates; reciprocal IP with IgG or antibodies to MED12, CDK8, MED4, MED30 and CARM1; Western blot for CARM1 or mediator subunits; conditions: remark: other sources report otherwise

Row | binding [1] | binding [2] | Binder
1 | binds |  | CDK8 (endogenous, MEFs) (protein, UniProt Q8R3L8 1-464) MDYDFKVKLSSERERVEDLFEYEGCKVGRGTYGHVYKAKRKDGKDDKDYALKQIEGTGISMSACREIALLRELKHPNVISLLKVFLSHADRKVWLLFDYAEHDLWHIIKFHRASKANKKPVQLPRGMVKSLLYQILDGIHYLHANWVLHRDLKPANILVMGEGPERGRVKIADMGFARLFNSPLKPLADLDPVVVTFWYRAPELLLGARHYTKAIDIWAIGCIFAELLTSEPIFHCRQEDIKTSNPYHHDQLDRIFNVMGFPADKDWEDIKKMPEHSTLMKDFRRNTYTNCSLIKYMEKHKVKPDSKAFHLLQKLLTMDPIKRITSEQAMQDPYFLEDPLPTSDVFAGCQIPYPKREFLTEEEPDEKGDKKTQQQQQGNNHTNGTGHPGNQDSGHAQGPPLKKVRVVPPTTTSGGLIMTSDYQRSNPHAAYPNPGPSTSQPQSSMGYSATSQQPPQYSHQTHRY
2 | binds |  | MED30 (endogenous, MEFs) (protein, UniProt Q9CQI9 1-178) MSTPPLAPTGMASGPFGGPQAQQAAREVNTATLCRIGQETVQDIVYRTMEIFQLLRNMQLPNGVTYHTGTYQDRLTKLQDHLRQLSILFRKLRLVYDKCNENCGGMDPIPVEQLIPYVDEDGSKNDDRAGPPRFASEERREIVEVNKKLKQKNQQLKQIMDQLRNLIWDINAMLAMRN
3 |  | no binding | CARM1 (endogenous, HeLa), Q86X55 1-608 (enzyme) MAAAAAAVGPGAGGAGSAVPGGAGPCATVSVFPGARLLTIGDANGEIQRHAEQQALRLEVRAGPDSAGIALYSHEDVCVFKCSVSRETECSRVGKQSFIITLGCNSVLIQFATPNDFCSFYNILKTCRGHTLERSVFSERTEESSAVQYFQFYGYLSQQQNMMQDYVRTGTYQRAILQNHTDFKDKIVLDVGCGSGILSFFAAQAGARKIYAVEASTMAQHAEVLVKSNNLTDRIVVIPGKVEEVSLPEQVDIIISEPMGYMLFNERMLESYLHAKKYLKPSGNMFPTIGDVHLAPFTDEQLYMEQFTKANFWYQPSFHGVDLSALRGAAVDEYFRQPVVDTFDIRILMAKSVKYTVNFLEAKEGDLHRIEIPFKFHMLHSGLVHGLAFWFDVAFIGSIMTVWLSTAPTEPLTHWYQVRCLFQSPLFAKAGDTLSGTCLLIANKRQSYDISIVAQVDQTGSKSSNLLDLKNPFFRYTGTTPSPPPGSHYTSPSENMWNTGSTYNLSSGMAVAGMPTAYDLSSVIASGSSVGHNNLIPLANTGIVNHTHSRMGSIMSTGIVQGSSGAQGSGGGSTSAHYAVNSQFTMGGPAISMASPMSIPTNTMHYGS
